Values quoted from earlier work in patent publication US10172829B2 (priority 2014, dated 2019).

Conditions: in vivo; cited from earlier work

O=c1c2ccccc2[se]n1-c1ccccc1 [Ebselen, 2-phenyl-1,2-benzoselenazol-3-one]
outcome of acute ischemic stroke: improved the outcome
